Data on one molecule can be found in publication PMC3255987 (The Journal of Cell Biology, 2012).

For this test, the target named is recombinant Cyclin A2 (mouse, UniProt P51943). Nature of the test: pull-down.

B1: GST-RhoAWT (natural protein)
chain: not shown
For the molecule B1, the binding result is reported as “binds”.
